No constants are given. Whether binding was seen depends on the method and setting. For some assays here: Binding seen in cells or lysates may run through a third protein. Some binding calls cover weakened binding; strength is not graded here. For some assays here: Sequences can lack the tags named with a protein.
T1: HA-DOG1 (Arabidopsis) (UniProt A0SVK0)
T1 sequence: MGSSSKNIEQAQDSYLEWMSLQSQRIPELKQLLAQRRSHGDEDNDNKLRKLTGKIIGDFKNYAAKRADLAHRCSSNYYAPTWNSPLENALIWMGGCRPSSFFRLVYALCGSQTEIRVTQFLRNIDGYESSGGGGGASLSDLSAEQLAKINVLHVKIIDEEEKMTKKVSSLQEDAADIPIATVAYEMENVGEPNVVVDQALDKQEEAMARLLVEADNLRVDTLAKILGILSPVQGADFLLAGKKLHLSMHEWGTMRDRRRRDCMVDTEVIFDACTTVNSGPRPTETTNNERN

Chains of the proteins cited; added tags and fusions are not shown.
UniProt O49686: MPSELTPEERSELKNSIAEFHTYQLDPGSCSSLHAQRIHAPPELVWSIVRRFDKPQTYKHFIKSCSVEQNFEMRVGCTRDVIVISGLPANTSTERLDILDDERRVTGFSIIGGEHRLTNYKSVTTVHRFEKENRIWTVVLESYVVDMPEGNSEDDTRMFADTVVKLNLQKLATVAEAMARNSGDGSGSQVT
UniProt P49597: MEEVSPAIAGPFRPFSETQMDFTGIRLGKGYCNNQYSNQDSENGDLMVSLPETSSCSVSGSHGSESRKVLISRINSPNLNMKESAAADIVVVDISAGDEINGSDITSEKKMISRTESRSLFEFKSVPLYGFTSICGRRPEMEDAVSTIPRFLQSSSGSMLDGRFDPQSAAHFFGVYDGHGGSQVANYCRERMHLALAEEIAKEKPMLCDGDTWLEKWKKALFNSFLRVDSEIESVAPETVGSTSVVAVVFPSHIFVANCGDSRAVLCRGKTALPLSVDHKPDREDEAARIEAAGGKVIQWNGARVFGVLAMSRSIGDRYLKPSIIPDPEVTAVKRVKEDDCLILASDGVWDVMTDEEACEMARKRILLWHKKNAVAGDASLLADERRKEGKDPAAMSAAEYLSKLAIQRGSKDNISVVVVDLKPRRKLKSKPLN

T2: DOG1-Like 3 (DOGL3), yeast two-hybrid fusion (Arabidopsis) (UniProt Q58FV0)
T2 sequence: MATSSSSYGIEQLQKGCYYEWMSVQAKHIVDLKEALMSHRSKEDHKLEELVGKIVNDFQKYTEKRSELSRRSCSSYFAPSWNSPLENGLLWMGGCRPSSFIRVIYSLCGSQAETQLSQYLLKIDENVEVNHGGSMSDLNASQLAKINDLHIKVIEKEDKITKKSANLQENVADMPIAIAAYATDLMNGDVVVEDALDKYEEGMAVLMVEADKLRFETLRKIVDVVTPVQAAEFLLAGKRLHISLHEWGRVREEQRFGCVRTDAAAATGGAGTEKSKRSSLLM

T3: GAL4BD-DOG1 (Arabidopsis) (UniProt A0SVK0)
T3 sequence: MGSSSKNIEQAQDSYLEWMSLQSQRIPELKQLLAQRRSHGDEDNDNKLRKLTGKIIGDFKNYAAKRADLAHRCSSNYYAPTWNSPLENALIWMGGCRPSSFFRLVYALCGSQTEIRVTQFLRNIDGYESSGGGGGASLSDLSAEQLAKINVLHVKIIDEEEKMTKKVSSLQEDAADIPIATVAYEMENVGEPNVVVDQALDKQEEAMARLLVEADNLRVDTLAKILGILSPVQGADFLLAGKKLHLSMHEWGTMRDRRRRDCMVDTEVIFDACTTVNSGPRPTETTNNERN

T4: HA-AHG1 (Arabidopsis) (UniProt Q9FLI3)
T4 sequence: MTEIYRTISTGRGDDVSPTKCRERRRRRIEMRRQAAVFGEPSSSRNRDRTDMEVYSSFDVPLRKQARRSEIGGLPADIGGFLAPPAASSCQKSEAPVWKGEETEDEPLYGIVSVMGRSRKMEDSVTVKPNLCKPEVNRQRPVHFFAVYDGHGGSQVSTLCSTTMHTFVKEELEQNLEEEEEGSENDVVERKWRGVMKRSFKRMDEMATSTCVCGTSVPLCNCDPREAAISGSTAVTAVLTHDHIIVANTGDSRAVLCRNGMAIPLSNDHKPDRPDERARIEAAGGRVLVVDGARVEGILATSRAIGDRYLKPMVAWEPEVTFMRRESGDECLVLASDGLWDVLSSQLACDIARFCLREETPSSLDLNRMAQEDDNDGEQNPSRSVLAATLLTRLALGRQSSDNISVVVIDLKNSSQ

B1: GAL4AD-AHG1 (enzyme, UniProt Q9FLI3 1-416)
chain: MTEIYRTISTGRGDDVSPTKCRERRRRRIEMRRQAAVFGEPSSSRNRDRTDMEVYSSFDVPLRKQARRSEIGGLPADIGGFLAPPAASSCQKSEAPVWKGEETEDEPLYGIVSVMGRSRKMEDSVTVKPNLCKPEVNRQRPVHFFAVYDGHGGSQVSTLCSTTMHTFVKEELEQNLEEEEEGSENDVVERKWRGVMKRSFKRMDEMATSTCVCGTSVPLCNCDPREAAISGSTAVTAVLTHDHIIVANTGDSRAVLCRNGMAIPLSNDHKPDRPDERARIEAAGGRVLVVDGARVEGILATSRAIGDRYLKPMVAWEPEVTFMRRESGDECLVLASDGLWDVLSSQLACDIARFCLREETPSSLDLNRMAQEDDNDGEQNPSRSVLAATLLTRLALGRQSSDNISVVVIDLKNSSQ
B2: GAL4AD-HAI1 (enzyme, UniProt Q9FIF5 1-413)
chain: MAEICYENETMMIETTATVVKKATTTTRRRERSSSQAARRRRMEIRRFKFVSGEQEPVFVDGDLQRRRRRESTVAASTSTVFYETAKEVVVLCESLSSTVVALPDPEAYPKYGVASVCGRRREMEDAVAVHPFFSRHQTEYSSTGFHYCGVYDGHGCSHVAMKCRERLHELVREEFEADADWEKSMARSFTRMDMEVVALNADGAAKCRCELQRPDCDAVGSTAVVSVLTPEKIIVANCGDSRAVLCRNGKAIALSSDHKPDRPDELDRIQAAGGRVIYWDGPRVLGVLAMSRAIGDNYLKPYVISRPEVTVTDRANGDDFLILASDGLWDVVSNETACSVVRMCLRGKVNGQVSSSPEREMTGVGAGNVVVGGGDLPDKACEEASLLLTRLALARQSSDNVSVVVVDLRRDT
B3: GAL4AD-HAI2/AIP1 (enzyme, UniProt Q9LNW3 1-442)
chain: MADICYEDETSACESRPLWSSRKWRIGVQRFRMSPSEMNPTASTTEEEDKSEGIYNKRNKQEEYDFMNCASSSPSQSSPEEESVSLEDSDVSISDGNSSVNDVAVIPSKKTVKETDLRPRYGVASVCGRRRDMEDAVALHPSFVRKQTEFSRTRWHYFGVYDGHGCSHVAARCKERLHELVQEEALSDKKEEWKKMMERSFTRMDKEVVRWGETVMSANCRCELQTPDCDAVGSTAVVSVITPEKIIVANCGDSRAVLCRNGKAVPLSTDHKPDRPDELDRIQEAGGRVIYWDGARVLGVLAMSRAIGDNYLKPYVTSEPEVTVTDRTEEDEFLILATDGLWDVVTNEAACTMVRMCLNRKSGRGRRRGETQTPGRRSEEEGKEEEEKVVGSRKNGKRGEITDKACTEASVLLTKLALAKHSSDNVSVVVIDLRRRRKRHVA
B4: YFP-DOG1_(Δ257-291) (domain or fragment, UniProt A0SVK0 1-256)
chain: MGSSSKNIEQAQDSYLEWMSLQSQRIPELKQLLAQRRSHGDEDNDNKLRKLTGKIIGDFKNYAAKRADLAHRCSSNYYAPTWNSPLENALIWMGGCRPSSFFRLVYALCGSQTEIRVTQFLRNIDGYESSGGGGGASLSDLSAEQLAKINVLHVKIIDEEEKMTKKVSSLQEDAADIPIATVAYEMENVGEPNVVVDQALDKQEEAMARLLVEADNLRVDTLAKILGILSPVQGADFLLAGKKLHLSMHEWGTMRD
B5: YFP-DOG1_(Δ1–6) (domain or fragment, UniProt A0SVK0 7-291)
chain: NIEQAQDSYLEWMSLQSQRIPELKQLLAQRRSHGDEDNDNKLRKLTGKIIGDFKNYAAKRADLAHRCSSNYYAPTWNSPLENALIWMGGCRPSSFFRLVYALCGSQTEIRVTQFLRNIDGYESSGGGGGASLSDLSAEQLAKINVLHVKIIDEEEKMTKKVSSLQEDAADIPIATVAYEMENVGEPNVVVDQALDKQEEAMARLLVEADNLRVDTLAKILGILSPVQGADFLLAGKKLHLSMHEWGTMRDRRRRDCMVDTEVIFDACTTVNSGPRPTETTNNERN
B6: YFP-DOG1_(Δ1–12) (domain or fragment, UniProt A0SVK0 13-291)
chain: DSYLEWMSLQSQRIPELKQLLAQRRSHGDEDNDNKLRKLTGKIIGDFKNYAAKRADLAHRCSSNYYAPTWNSPLENALIWMGGCRPSSFFRLVYALCGSQTEIRVTQFLRNIDGYESSGGGGGASLSDLSAEQLAKINVLHVKIIDEEEKMTKKVSSLQEDAADIPIATVAYEMENVGEPNVVVDQALDKQEEAMARLLVEADNLRVDTLAKILGILSPVQGADFLLAGKKLHLSMHEWGTMRDRRRRDCMVDTEVIFDACTTVNSGPRPTETTNNERN
B7: YFP-DOG1_(Δ7–12) (protein, UniProt A0SVK0)
chain: MGSSSKDSYLEWMSLQSQRIPELKQLLAQRRSHGDEDNDNKLRKLTGKIIGDFKNYAAKRADLAHRCSSNYYAPTWNSPLENALIWMGGCRPSSFFRLVYALCGSQTEIRVTQFLRNIDGYESSGGGGGASLSDLSAEQLAKINVLHVKIIDEEEKMTKKVSSLQEDAADIPIATVAYEMENVGEPNVVVDQALDKQEEAMARLLVEADNLRVDTLAKILGILSPVQGADFLLAGKKLHLSMHEWGTMRDRRRRDCMVDTEVIFDACTTVNSGPRPTETTNNERN
B8: YFP-DOG1 (protein, UniProt A0SVK0 1-291)
chain: MGSSSKNIEQAQDSYLEWMSLQSQRIPELKQLLAQRRSHGDEDNDNKLRKLTGKIIGDFKNYAAKRADLAHRCSSNYYAPTWNSPLENALIWMGGCRPSSFFRLVYALCGSQTEIRVTQFLRNIDGYESSGGGGGASLSDLSAEQLAKINVLHVKIIDEEEKMTKKVSSLQEDAADIPIATVAYEMENVGEPNVVVDQALDKQEEAMARLLVEADNLRVDTLAKILGILSPVQGADFLLAGKKLHLSMHEWGTMRDRRRRDCMVDTEVIFDACTTVNSGPRPTETTNNERN
B9: YFP-DOG1^H245A (protein, UniProt A0SVK0 1-291)
chain: MGSSSKNIEQAQDSYLEWMSLQSQRIPELKQLLAQRRSHGDEDNDNKLRKLTGKIIGDFKNYAAKRADLAHRCSSNYYAPTWNSPLENALIWMGGCRPSSFFRLVYALCGSQTEIRVTQFLRNIDGYESSGGGGGASLSDLSAEQLAKINVLHVKIIDEEEKMTKKVSSLQEDAADIPIATVAYEMENVGEPNVVVDQALDKQEEAMARLLVEADNLRVDTLAKILGILSPVQGADFLLAGKKLALSMHEWGTMRDRRRRDCMVDTEVIFDACTTVNSGPRPTETTNNERN
B10: YFP-DOG1^H245AH249A (protein, UniProt A0SVK0 1-291)
chain: MGSSSKNIEQAQDSYLEWMSLQSQRIPELKQLLAQRRSHGDEDNDNKLRKLTGKIIGDFKNYAAKRADLAHRCSSNYYAPTWNSPLENALIWMGGCRPSSFFRLVYALCGSQTEIRVTQFLRNIDGYESSGGGGGASLSDLSAEQLAKINVLHVKIIDEEEKMTKKVSSLQEDAADIPIATVAYEMENVGEPNVVVDQALDKQEEAMARLLVEADNLRVDTLAKILGILSPVQGADFLLAGKKLALSMAEWGTMRDRRRRDCMVDTEVIFDACTTVNSGPRPTETTNNERN
B11: GAL4AD-HAB2 (enzyme, UniProt Q9LNP9 1-511)
chain: MEEISPAVALTLGLANTMCDSGISSTFDISELENVTDAADMLCNQKRQRYSNGVVDCIMGSVSEEKTLSEVRSLSSDFSVTVQESEEDEPLVSDATIISEGLIVVDARSEISLPDTVETDNGRVLATAIILNETTIEQVPTAEVLIASLNHDVNMEVATSEVVIRLPEENPNVARGSRSVYELECIPLWGTISICGGRSEMEDAVRALPHFLKIPIKMLMGDHEGMSPSLPYLTSHFFGVYDGHGGAQVADYCHDRIHSALAEEIERIKEELCRRNTGEGRQVQWEKVFVDCYLKVDDEVKGKINRPVVGSSDRMVLEAVSPETVGSTAVVALVCSSHIIVSNCGDSRAVLLRGKDSMPLSVDHKPDREDEYARIEKAGGKVIQWQGARVSGVLAMSRSIGDQYLEPFVIPDPEVTFMPRAREDECLILASDGLWDVMSNQEACDFARRRILAWHKKNGALPLAERGVGEDQACQAAAEYLSKLAIQMGSKDNISIIVIDLKAQRKFKTRS

How the values were obtained:
HA-DOG1 (Arabidopsis) = target: T1, HA-DOG1 (Arabidopsis); assay: co-IP; co-expression in N. benthamiana leaves; extraction buffer 50 mM Na-phosphate pH 7.4, 150 mM NaCl, 0.1% NP-40, 1 mM DTT; anti-HA matrix 3 h at 4 °C; blots with anti-GFP and anti-HA; leaves with or without 100 μM ABA or 50 μM hemin for 24 h
[1] = target: GAL4BD-PYR1 (Arabidopsis) (UniProt O49686); assay: two-hybrid; Matchmaker Gold, Y2H gold strain; GAL4BD-PYR1 and GAL4AD-PP2Cs; tenfold serial dilutions on QDO/A and QDO/A/ABA (10 μM ABA) plates, 7 days
[2] = target: T2, DOG1-Like 3 (DOGL3), yeast two-hybrid fusion (Arabidopsis); assay: two-hybrid; Matchmaker Gold, Y2H gold strain; fusions from pASGW-attR and pACTGW-attR (GAL4BD-DOG1 and GAL4AD-PP2Cs in Fig. 4a); growth on QDO/A plates, 7 days
[3] = target: T3, GAL4BD-DOG1 (Arabidopsis); assay: as above
HA-AHG1 (Arabidopsis) = target: T4, HA-AHG1 (Arabidopsis); assay: co-IP; co-expression in N. benthamiana leaves; extraction buffer 50 mM Na-phosphate pH 7.4, 150 mM NaCl, 0.1% NP-40, 1 mM DTT; anti-HA matrix 3 h at 4 °C; blots with anti-GFP and anti-HA; leaves with or without 100 μM ABA or 50 μM hemin for 24 h

Molecule	binding [3]	binding (HA-AHG1 (Arabidopsis))	further results
YFP-ABI1 (from UniProt P49597 1-434) (enzyme)			binding (HA-DOG1 (Arabidopsis)): no binding
B1	binds		binding [1]: no binding; binding [2]: binds
B2	binds		binding [1]: no binding
B3	binds		binding [1]: no binding
B4		binds	
B5		binds	
B6		binds	
B7		binds	
B8		binds	
B9		binds	
B10		binds	
B11	no binding		binding [2]: no binding

From paper PMC5989226 (Nature Communications, 2018)
